Assay results from US20230272055A1, “ANTI-MUTANT CALRETICULIN (CALR) ANTIBODIES AND USES THEREOF” (Incyte Corporation, priority 2021, published 2023).

T1: MPL dimerization in HAP1 cells transfected with MPL-LgBiT, MPL-smBiT, human JAK2 and mutant CALR Type 1 (Homo sapiens, UniProt P27797)
T1 construct: the full-length WT or mutant CALR Type 1 protein (full-length cds cloned into the pD2529 vector, ATUM Bio); expressed in transfected cells; host or cells: HAP1 cells knocked out for human JAK2 (Horizon Discovery, Ltd.), transient transfection
T1 sequence (P27797 with tags, fused parts or gaps): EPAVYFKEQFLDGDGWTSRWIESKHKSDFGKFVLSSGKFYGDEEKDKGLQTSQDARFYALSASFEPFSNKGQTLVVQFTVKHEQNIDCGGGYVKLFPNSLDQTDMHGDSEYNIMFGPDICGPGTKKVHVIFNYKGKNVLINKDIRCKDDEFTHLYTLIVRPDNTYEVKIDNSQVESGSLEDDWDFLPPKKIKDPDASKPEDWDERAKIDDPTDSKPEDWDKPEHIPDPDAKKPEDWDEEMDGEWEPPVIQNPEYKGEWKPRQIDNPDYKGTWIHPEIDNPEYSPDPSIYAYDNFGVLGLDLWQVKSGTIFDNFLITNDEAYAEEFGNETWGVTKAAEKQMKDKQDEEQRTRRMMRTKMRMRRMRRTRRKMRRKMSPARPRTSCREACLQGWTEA


Assays:
[1] = biological target: T2, recombinant MBP-mutCALR Type 1 fusion protein (Homo sapiens, UniProt P27797, DEL40-40); assay: Biacore SPR binding kinetics, Experiment 2 (parental and variant antibodies); conditions: Biacore 8K, 25° C., 1:1 binding model
T2 construct: His6 (N); purchased Cepter (cepterbiopartners.com), custom made

[2] = test system: Ba/F3 cells transfected with MPL and mutCALR Type 1; assay: Inhibition of cell proliferation, CellTiter-Glo 72 hours, mutCALR Type 1; assay type: cell-based; conditions: Ba/F3 engineered cells, high-throughput primary screening
In short: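 Anti-mutCALR antibodies were added to engineered Ba/F3 cells (MPL with Type 1 or Type 2 mutCALR; 5,000/well, RPMI 1640, 2% FBS). Proliferation was scored as CellTiter-Glo luminescent viability following a 72 h incubation.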

[3] = biological target: T1, MPL dimerization in HAP1 cells transfected with MPL-LgBiT, MPL-smBiT, human JAK2 and mutant CALR Type 1; assay: Inhibition of MPL dimerization (MPL-LgBiT/MPL-smBiT luminescence); assay type: cell-based; conditions: percent inhibition compared to isotype control; FIGS. 4A-4G
Method: Inhibition of MPL dimerization was tested as a potential mechanism of action of the anti-mutCALR antibodies. HAP1 cells knocked out for human JAK2 (Horizon Discovery, Ltd.) were transiently transfected with vectors encoding the MPL-LgBiT and MPL-smBiT fusion proteins (Promega Corp.). Also included in the transfection were vectors encoding the full-length human JAK2 and the full-length WT or mutant CALR Type 1 protein (full-length cds cloned into the pD2529 vector, ATUM Bio). The cells were transfected in 96 well plates using Trans-IT 2020 reagent (Mirus Bio LLC) with equivalent amounts of each plasmid. Cells were then incubated at 37° C., 5% CO2. 6 hours post-transfection, antibodies were diluted into growth medium (IMDM, 10% FBS) and added to the cells at the indicated concentrations. The plates were incubated overnight and the growth medium was replaced with 100 μl OPTI-MEM I, no phenol red, containing the same concentrations of antibodies. After 1 hour at 37° C., 5% CO2, 25 μl NanoGlo Live Cell Reagent (Promega) was added to each well. Plates were returned to the incubator for 30 minutes before luminescence was read on a PHERAstar FSX (BMG Labtech). Data was analyzed using GraphPad PRISM Software (version 7.04) and expressed as percent inhibition compared to isotype control.
The amino acid sequences for the MPL-LgBiT and MPL-smBiT fusion proteins used in this Example are: […]

[4] = biological target: T2, recombinant MBP-mutCALR Type 1 fusion protein; assay: Biacore SPR binding kinetics, Experiment 1; conditions: Biacore 8K, 25° C., 1:1 binding model
[5] = test system: MPL-mutCALR cells (BaF3 cells stably expressing human MPL and human mutCALR); assay: Flow cytometry binding to cell surface MPL and mutCALR (GMFI, four parameter fit); conditions: four parameter curve fitting
Method: To assess binding of CALR antibodies to cell surface CALR, parental BaF3 (DSMZ) cells or BaF3 cells stably expressing only human MPL or both human MPL (Uniprot Number: P40238-1) and human mutCALR Type 1 and Type 2 were used. On the day of the assay, cells were washed and resuspended in assay buffer. Approximately 200,000 cells/well were added to 96-well plates and stained with the indicated concentration of antibodies for 30 minutes on ice. Cells were then washed and stained with goat anti-human secondary conjugated to R-phycoerythrin (R-PE) (Jackson Immuno Research Laboratories) for 30 minutes on ice. The cells were then washed and analyzed by flow cytometry. Geometric Mean Fluorescence Intensity (GMFI) of cell binding was graphed and EC50, hill slope, and area under the curve (AUC) were determined after four parameter curve fitting using GraphPad Prism Software (version 7.04).

Molecule | ka [1] | kd [1] | IC50 inhibition of cell proliferation [2] | inhibition of MPL dimerization [3] | ka [4] | kd [4] | MPL-mutCALR Hill Slope [5]
55 (antibody) heavy: EVQLVQSGAEVKKPGASVKVSCKVSGYTLTELSMQWVRQAPGKGLEWMGGFDPDDGETMYAEKFQGRLTVTEDTSTDTVYMELRSLTSEDTALYFCATSPGYDFFDYWGQGTLVTVSSASTKGPSVFPLAPSSKSTSGGTAALGCLVKDYFPEPVTVSWNSGALTSGVHTFPAVLQSSGLYSLSSVVTVPSSSLGTQTYICNVNHKPSNTKVDKRV[omitted - human IgG1 Fc with changes] light: QSALTQPASVSGSPGQSITISCTGTSSDVGGYNYVSWYQQHPGKAPKLMIYEVSNRPSGVSNRFSGSNSGNTATLTINRVEAGDEADYYCQVWDSSNDLLIFGGGTKLTVLGQPKAAPSVTLFPPSSEELQANKATLVCLISDFYPGAVTVAWKADSSPVKAGVETTTPSKQSNNKYAASSYLSLTPEQWKSHRSYSCQVTHEGSTVEKTVAPTECS | 5.32e+06 M⁻¹ s⁻¹ | 0.000911 s⁻¹ | 1.1 ng/mL | inhibit MPL dimerization | – | – | –
68 (antibody) heavy: EVQLVQSGAEVKKPGASVKVSCKVSGYTLTELSMQWVRQAPGKGLEWMGGFDPDEGETMYAEKFQGRLTVTEDTSTDTVYMELRSLTSEDTALYFCATSPGYDFFDYWGQGTLVTVSSASTKGPSVFPLAPSSKSTSGGTAALGCLVKDYFPEPVTVSWNSGALTSGVHTFPAVLQSSGLYSLSSVVTVPSSSLGTQTYICNVNHKPSNTKVDKRV[omitted - human IgG1 Fc with changes] light: SYVLTQPPSVSVAPGKTARITCTGTSSDVGGYNYVSWYQQKPGQAPVLVVYEVSNRPSGIPERFSGSNSGNTATLTISRVEAGDEADYYCQVWDSSNDLLIFGGGTKLTVLGQPKAAPSVTLFPPSSEELQANKATLVCLISDFYPGAVTVAWKADSSPVKAGVETTTPSKQSNNKYAASSYLSLTPEQWKSHRSYSCQVTHEGSTVEKTVAPTECS | 1.44e+06 M⁻¹ s⁻¹ | 0.00166 s⁻¹ | 0.9 ng/mL | inhibit MPL dimerization | – | – | –
134 (antibody) heavy: EVQLVQSGAEVKKPGASVKVSCKVSGYTLTELSMQWVRQAPGKGLEWMGGFDPDDGETMYAEKFQGRLTVTEDTSTDTVYMELRSLTSEDTALYFCATSPGYDFFDYWGQGTLVTVSSASTKGPSVFPLAPSSKSTSGGTAALGCLVKDYFPEPVTVSWNSGALTSGVHTFPAVLQSSGLYSLSSVVTVPSSSLGTQTYICNVNHKPSNTKVDKRV[omitted - human IgG1 Fc with changes] light: SYVLTQPPSVSVAPGKTARITCGGDNIGSKSVHWYQQKPGQAPVLVVYDDSDRPSGIPERFSGSNSGNTATLTISRVEAGDEADYYCQVWDSSNDLLIFGGGTKLTVLGQPKAAPSVTLFPPSSEELQANKATLVCLISDFYPGAVTVAWKADSSPVKAGVETTTPSKQSNNKYAASSYLSLTPEQWKSHRSYSCQVTHEGSTVEKTVAPTECS | 1.27e+06 M⁻¹ s⁻¹ | 0.00142 s⁻¹ | 3.6 ng/mL | inhibit MPL dimerization | – | – | –
2 (antibody) heavy: EVQLVQSGAEVKKPGASVKVSCKVSGYTLTELSMQWVRQAPGKGLEWMGGFDPDDGETMYAEKFQGRLTVTEDTSTDTVYMELRSLTSEDTALYFCATSPGYDFFDYWGQGTLVTVSSASTKGPSVFPLAPSSKSTSGGTAALGCLVKDYFPEPVTVSWNSGALTSGVHTFPAVLQSSGLYSLSSVVTVPSSSLGTQTYICNVNHKPSNTKVDKRV[omitted - human IgG1 Fc] light: SYELTQPPSVSVAPGKTARITCGGDNIGSKSVHWYQQKPGQAPVLVVYDDSDRPSGIPERFSGSNSGNTATLTISRVEAGDEADYYCQVWDSSIDHLIFGGGTKVTVLGQPKAAPSVTLFPPSSEELQANKATLVCLISDFYPGAVTVAWKADSSPVKAGVETTTPSKQSNNKYAASSYLSLTPEQWKSHRSYSCQVTHEGSTVEKTVAPTECS | – | – | 71.4 ng/mL | – | 1.63e+06 M⁻¹ s⁻¹ | 0.0123 s⁻¹ | 0.38

Second part, led by results:

ka [1] | kd [1] | IC50 inhibition of cell proliferation [2] | inhibition of MPL dimerization [3] | ka [4] | kd [4] | Molecule | MPL-mutCALR Hill Slope [5]
428000 M⁻¹ s⁻¹ | 0.000673 s⁻¹ | 1.9 ng/mL | inhibit MPL dimerization | – | – | 184 (antibody) heavy: EVQLVQSGAEVKKPGASVKVSCKVSGYTLTELSMQWVRQAPGKGLEWMGGFDPDDAETMYAEKFQGRLTVTEDTSTDTVYMELRSLTSEDTALYFCATSPGYDFFDYWGQGTLVTVSSASTKGPSVFPLAPSSKSTSGGTAALGCLVKDYFPEPVTVSWNSGALTSGVHTFPAVLQSSGLYSLSSVVTVPSSSLGTQTYICNVNHKPSNTKVDKRV[omitted - human IgG1 Fc with changes] light: SYVLTQPPSVSVAPGQTARITCGGSDIGDEIVHWYQQKPGQAPVLVVYDDSDRPSGIPERFSGSNSGNTATLTISRVEAGDEADYYCQVWDSSSDHLIFGGGTKLTVLGQPKAAPSVTLFPPSSEELQANKATLVCLISDFYPGAVTVAWKADSSPVKAGVETTTPSKQSNNKYAASSYLSLTPEQWKSHRSYSCQVTHEGSTVEKTVAPTECS | –
732000 M⁻¹ s⁻¹ | 0.00121 s⁻¹ | 4.6 ng/mL | inhibit MPL dimerization | – | – | 188 (antibody) heavy: EVQLVQSGAEVKKPGASVKVSCKVSGYTLTELSMQWVRQAPGKGLEWMGGFDPDEGETMYAEKFQGRLTVTEDTSTDTVYMELSSLRSEDTAVYFCATSPGYDFFDYWGQGTLVTVSSASTKGPSVFPLAPSSKSTSGGTAALGCLVKDYFPEPVTVSWNSGALTSGVHTFPAVLQSSGLYSLSSVVTVPSSSLGTQTYICNVNHKPSNTKVDKRV[omitted - human IgG1 Fc with changes] light: SYVLTQPPSVSVAPGQTARITCGGSDIGDEIVHWYQQKPGQAPVLVVYDDSDRPSGIPERFSGSNSGNTATLTISRVEAGDEADYYCQVWDSSSDHLIFGGGTKLTVLGQPKAAPSVTLFPPSSEELQANKATLVCLISDFYPGAVTVAWKADSSPVKAGVETTTPSKQSNNKYAASSYLSLTPEQWKSHRSYSCQVTHEGSTVEKTVAPTECS | –
